# Experimental data taken from PubChem BioAssay AID1345083 (National Center for Advancing Translational Sciences (NCATS), 2018).
# The whole screen tested about 94,000 compounds, of which about 6,200 (6.6%) were called active. The inconclusive results got no clear call from the source; some entries with a clear call stand among them for comparison. Calls come from the whole dose curve; as a rule, active = well fitted inhibition curve with a large enough effect; inconclusive = small, poorly fitted or top-dose-only effect; inactive = flat fitted curve, though single readings scatter. A potency beside an inconclusive call is a rough fit, not a confirmed value.
# Assay: Cytotoxic Profiling in HEK 293 Cell Line of Diverse Libraries Using Quantitative High-Throughput Screening; note: nearly all actives have a fitted effect of over 60% in size
# Conditions: HEK 293 viability, ATP luminescence (CellTiter-Glo), 48-72 h; activity change, negative = cytotoxicity: at 115 µM (top of the series) unless noted; series mostly up to 115 µM
# Method in brief: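 Luminescence from cellular ATP, measured with CellTiter-Glo, indicates HEK 293 viability. Cells plated at 250 cells/well are treated with compound for 48 or 72 hr at 37 degree Celsius before reagent addition.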
# % is set by controls: 0 for no effect and ±100 for the full control effect; potency is the fitted concentration of half-maximal effect; tags give direction and shape of the fitted curve.
SMILES,"activity change, negative = cytotoxicity",Potency
COc1ccc(-n2nc3n(c2=O)CCN(Cc2ccc(N(C)C)cc2)C3)cc1,inactive: -21.2%,
O=C(NCc1ccc(F)cc1)c1nc2sccn2c1Br,inactive: -0.137%,
O=C(Cc1ccc(F)cc1)Nc1cc(-c2cccnc2)nn1-c1ccccc1,,"inconclusive: 50.1 µM [inhibitor, partial curve, poor fit]"
Cn1ncc2c(C(=O)NCc3ccc(F)c(F)c3)cc(C(C)(C)C)nc21,,active: 56.2 µM
COc1cccc(NC(=O)c2cnc3c(c2)N(C(=O)Cc2cn(C)c4ccccc24)CCC3)c1,,"inconclusive: 31.6 µM [inhibitor, full curve]"
COc1ccc(S(=O)(=O)N2CCC(OC3CCN(C)CC3)CC2)cc1,inactive: -0.77%,
COc1ccc(Cl)cc1-c1ccc2c(c1)C(=O)N1CC[C@H](NC(=O)NC(C)C)[C@H]1C(=O)N2,,"inconclusive: 89.1 µM [inhibitor, single point]"
CC(C)(C)c1ccc(C(=O)N2CCOCC(O)(CN3CCCC3)C2)cc1 (stereo not given),,"inconclusive: 39.8 µM [inhibitor, partial curve]"
Cc1ccc(-c2ncc(C(=O)Nc3ccccc3F)c(-c3ccncc3)n2)cc1,,"inconclusive: 79.4 µM [inhibitor, partial curve, poor fit]"
COc1cccc(CN2CCc3nc(N4CCOCC4)[nH]c(=O)c3CC2)c1OC,inactive: 0.857%,
Cc1nn2c(c1-c1ccccc1Oc1ccccc1)N(Cc1ccccc1O)CCC2,,active: 10 µM
CNc1cc(C(=O)NCc2cccnc2N(C)Cc2ccccc2)ccn1,,"inconclusive: 31.6 µM [inhibitor, full curve]"
CC(C)Oc1ccc(CN2CCC(CO)(Cc3ccccc3Cl)CC2)cc1CO,,"inconclusive: 22.4 µM [inhibitor, full curve, poor fit]"
CC(C)(Oc1nn(CCOc2ccccc2)c2ccccc12)C(=O)NCc1cnccn1,,"inconclusive: 100 µM [inhibitor, partial curve]"
O=C(C1CCCC1)N1CCCC(c2noc(COc3ccccc3F)n2)C1 (stereo not given),,"inconclusive: 50.1 µM [inhibitor, partial curve, poor fit]"
Cn1nccc1C(=O)N1CCCCCCNC(=O)[C@@H]2CCCC[C@@H]21,inactive: -10.3%,
O=C(CCc1nc(C2CC(=O)N(C3CCCCC3)C2)no1)c1ccc(Cl)cc1 (stereo not given),,"inconclusive: 50.1 µM [inhibitor, partial curve, poor fit]"
Cc1ccccc1-c1cc(C(=O)NCCN2CCNC2=O)c2c(c1)N(C)CCO2,,"inconclusive: 126 µM [inhibitor, single point]"
O=C(CNC(=O)c1cccc(-c2ccsc2)c1)NCc1ccccc1Cl,,"inconclusive: 15.8 µM [inhibitor, full curve, poor fit]"
Cc1ccc(-c2nnc3ccc(NC(C)C)nn23)nc1,,"inconclusive: 158 µM [inhibitor, single point]"
O=C(NCCCc1ccccc1)C1CCCN(Cc2cccc(-c3ccc(F)cc3F)c2)C1 (stereo not given),,"inconclusive: 31.6 µM [inhibitor, partial curve, poor fit]"
COc1ccc(CN2Cc3[nH]cnc3C[C@H]2C(=O)N2CCC(Cc3ccccc3)CC2)cc1,,active: 79.4 µM

SMILES,"activity change, negative = cytotoxicity",Potency
O=C(c1ccsc1)N1CCCn2cc(-c3ccccc3F)nc21,inactive: -13.5%,
N#Cc1ccc(C(=O)NC2CCc3n[nH]c(=O)n3CC2)cc1 (stereo not given),inactive: -2.97%,
CCc1nc2c(c(-c3ccc(O)cc3)n1)CCN(Cc1ccc(OC)cc1)CC2,inactive: -11.7%,
CCOc1ccc(C2Cn3nnc(-c4nc(-c5ccsc5)no4)c3CO2)cc1 (stereo not given),inactive: -18.3%,
CCCN1C(CC(C)C)=NS(=O)(=O)c2cc(NC(=O)c3cccs3)ccc21,,"inconclusive: 44.7 µM [inhibitor, partial curve, poor fit]"
COc1cccc(-c2ccc(CN3CCCC3C(=O)NCc3ccc4c(c3)OCO4)cc2)c1 (stereo not given),,"inconclusive: 50.1 µM [inhibitor, partial curve, poor fit]"
CN(C)c1cccc(-c2nccc3c(=O)cc(N4CCOCC4)oc23)c1,,"inconclusive: 126 µM [inhibitor, single point]"
COC[C@H]1C[C@H]2C[C@@H](OC)[C@H](N(C)Cc3cccc(F)c3)[C@]2(O)CO1,,"inconclusive: 39.8 µM [inhibitor, single point]"
CC(C)C[C@@H]1N[C@H](C(=O)NC2CC2)Cc2cn(Cc3nccn3C)c3cccc1c23,,"inconclusive: 63.1 µM [inhibitor, full curve, poor fit]"
O=C(NC1CCN(c2cc(-c3ccc(Cl)cc3)[nH]n2)C1)c1ccc(Br)cc1 (stereo not given),,"inconclusive: 44.7 µM [inhibitor, partial curve, poor fit]"
COC(=O)c1ccc2c(c1)nc1n2[C@@H](CNCc2ccc(S(C)(=O)=O)cc2)COC1,inactive: -31.4% [at 172 µM],
Cc1cc(Cl)ccc1S(=O)(=O)N1CC(c2noc(-c3cccnc3)n2)C1,,"inconclusive: 44.7 µM [inhibitor, partial curve, poor fit]"
C[C@H](c1ccccc1)N1C(=O)[C@@H]2CN(C(=O)CC(C)(C)CC(=O)O)CCN2C1=O,,"inconclusive: 126 µM [inhibitor, single point]"
Cc1cc(C)cc(-c2ccc(CN3C4CCC3CN(C(=O)c3ccncc3)C4)cc2)c1,,active: 44.7 µM
CCc1cccc(-n2nnnc2N2CCN(C(=O)Cc3ccc(C)c(F)c3)CC2)c1,,"inconclusive: 50.1 µM [inhibitor, partial curve, poor fit]"
COC1CCN(C(=O)COc2ccccc2)CC(=O)N(C)c2ccccc21 (stereo not given),inactive: -11.3%,
Cc1cc(-c2cccc(COc3ccc4c(cnn4CC[S+](C)(=O)[O-])c3)c2)ccn1,,active: 25.1 µM
O=C(C1CCCN1C(=O)Nc1ccc(Cl)cc1)N1CCC(N2Cc3cccn3C2=O)CC1 (stereo not given),,"inconclusive: 56.2 µM [inhibitor, partial curve, poor fit]"
Cc1ccc(NC(=O)C2CCN(c3cc(C(F)(F)F)ncn3)CC2)cc1F,,"inconclusive: 31.6 µM [inhibitor, partial curve, poor fit]"
C=CCn1cc(CN(Cc2ccc(SC)cc2)C2CC2)c(C)n1,,"inconclusive: 50.1 µM [inhibitor, partial curve, poor fit]"
Cc1ccc(-c2nnc(C3CN(C(=O)c4cccc(C)c4)CC34CCOCC4)o2)cc1 (stereo not given),,"inconclusive: 89.1 µM [inhibitor, single point]"
O=C(CCC(F)(F)F)N1CCC(Oc2cnc3c(ccn3-c3cncnc3)c2)CC1,,"inconclusive: 100 µM [inhibitor, partial curve]"

SMILES,"activity change, negative = cytotoxicity",Potency
Cc1oc(-c2cccc(Oc3ccccc3)c2)nc1CN1CCC(C#N)CC1,,"inconclusive: 50.1 µM [inhibitor, partial curve, poor fit]"
COc1ccc(NC(=O)C2CCN(C(=O)c3ncn4c3COC(c3ccccc3)C4)CC2)cc1 (stereo not given),inactive: 8.25%,
O=C(NCc1nnc2ccc(-c3ccccc3)nn12)c1cccc(Br)c1,,"inconclusive: 63.1 µM [inhibitor, partial curve, poor fit]"
CC(C)c1noc(-c2cccn3c(CNC(=O)CCCc4ccccc4)nnc23)n1,,"inconclusive: 89.1 µM [inhibitor, partial curve, poor fit]"
CC(=O)Nc1ccc(CN(C)Cc2ccccc2C(F)(F)F)cc1,,active: 89.1 µM
O=C(NCc1cccs1)C1CCCN(c2nccc(Nc3ccccc3F)n2)C1 (stereo not given),,"inconclusive: 25.1 µM [inhibitor, partial curve, poor fit]"
Cc1ccc(-c2nc(C3CC(=O)N(C4CCCCC4)C3)no2)cc1C (stereo not given),,"inconclusive: 50.1 µM [inhibitor, partial curve, poor fit]"
CN(C)c1cccc(-c2cnc(Nc3cnccn3)c3c2CCO3)c1,,"inconclusive: 141 µM [inhibitor, partial curve, poor fit]"
CN1CCCN(S(=O)(=O)c2ccc3c(c2)OCCO3)c2ccccc21,,active: 31.6 µM
CC1(C(=O)NC2CCN(Cc3ccccc3)CC2)CCCCC(=O)N1 (stereo not given),inactive: -0.211%,
COc1ccc(N2CCOC3CCN(CCCc4ccccc4)CC3C2=O)cc1 (stereo not given),,"inconclusive: 112 µM [inhibitor, single point]"
COCCc1noc(C2CN(S(=O)(=O)c3ccc(C#N)cc3)C2)n1,,"inconclusive: 28.2 µM [inhibitor, full curve]"
CNC(=O)CCn1ncc2cc(OCc3ccccc3-c3cnc(OC)nc3)ccc21,,"inconclusive: 126 µM [inhibitor, single point]"
COC(=O)C1=C(C)N=C2SC=C(CC(=O)N3CCCC(C(N)=O)C3)N2C1c1cccc(Cl)c1 (stereo not given),inactive: -21.6%,
O=C(c1cc2c(s1)CCC(C(=O)N1CCN(C3CCCCC3)CC1)C2)N1CCCCC1 (stereo not given),,"inconclusive: 56.2 µM [inhibitor, partial curve, poor fit]"
Cc1cc(Cl)ccc1OCCN1CCN(C(=O)[C@H]2CCC[C@H](O)C2)CC1,,"inconclusive: 44.7 µM [inhibitor, partial curve, poor fit]"
O=C(NC1CCCCC1)C1CCc2nnc(-c3ccccn3)n21 (stereo not given),inactive: 1.94% [at 172 µM],
O=C(c1ccccc1OCC1CCCNC1)N1CCOCC1 (stereo not given),inactive: -1.02%,
O=C(O)c1ccccc1C(=O)N1C[C@@H]2C[C@H]1C(=O)N(CC1CC1)c1ccccc1O2,inactive: 2.51% [at 172 µM],
COc1ccc(CN2Cc3cc(NC(=O)c4c(F)cccc4F)ccc3OCC2=O)c(OC)c1,,"inconclusive: 89.1 µM [inhibitor, partial curve, poor fit]"
COc1ccc(-c2nc(C3CC3)nc3c2CN(C(=O)c2ccccc2)CC3)cc1,inactive: -11.6%,
